Reference: US20170081387A1 (published 2017)
Values belong to the binder of their own block, whether it stands above or below them.

Biological target: recombinant human BAFF (human, UniProt Q9Y275 partial chain)
Experiment: ELISA

- EC50: 155 pM
B1: fusion protein A (Fc fusion)
chain: LPAQVAFTPYAPEPGSTCRLREYYDQTAQMCCSKCSPGQHAKVFCTKTSDTVCDAMRSCPEEQYWDPLLGTCMSCKTICNHQSQRTCAAFCRSLSCRKEQGKFYDHLLRDCISCASICGQHPKQCAYFCENKLRSPVNLPPELR[human IgG1 Fc with D221Y (EU numbers) omitted here]

- EC50: 131 pM
B2: fusion protein B (Fc fusion)
chain: AMRSCPEEQYWDPLLGTCMSCKTICNHQSQRTCAAFCRSLSCRKEQGKFYDHLLRDCISCASICGQHPKQCAYFCENKLRSPVNLPPELR[human IgG1 Fc with D221Y (EU numbers) omitted here]
